The source of these data is article PMC9610465, “The Inhibition of α-Glucosidase, α-Amylase and Protein Glycation by Phenolic Extracts of Cotoneaster bullatus, Cotoneaster zabelii, and Cotoneaster integerrimus Leaves and Fruits: Focus on Anti-Hyperglycemic Activity and Kinetic Parameters” (Molecules, 2022).

Molecules are shown by their SMILES.

The subject of assay [1] is α-glucosidase from Saccharomyces cerevisiae. The experiment in a line: Kinetic parameters of α-glucosidase inhibition (Lineweaver–Burk, Michaelis–Menten). The assay is classed as biochemical. The settings on record: for Vmax: α-glucosidase. As to the method: Kinetic parameters of α-glucosidase and α-amylase inhibition were determined for the leaf extract of C. bullatus. In the kinetic study, the reaction mixtures were prepared according to the protocols described above (Section 4.4 and Section 4.5). In the inhibition assays, reaction substrates (S) were used at different concentrations, including PNPG in the range of 0.28–1.00 mM and soluble starch in the range of 0.26–1.81 mM, for α-glucosidase and α-amylase tests, respectively. The activity of enzymes was evaluated in the absence or presence of different concentrations of the tested extract used as an inhibitor (I). The extract concentrations for the α-glucosidase inhibitory kinetics were 5.0, 6.0, and 9.0 µg/mL, whereas 20.0, 40.0, and 60.0 µg/mL were used for α-amylase. […] The initial rates of reactions (Vo) were calculated from calibration curves constructed using varying concentrations of p-nitrophenol and maltose for the α-glucosidase and α-amylase assay, respectively.
Based on the Lineweaver–Burk graph, two important terms in enzyme kinetics could be determined: Km (Michaelis constant) and Vmax (Maximum velocity). The y-intercept of such a graph corresponds to the inverse of Vmax, while the x-axis intersection represents −1/Km. Vmax and Km could therefore be determined experimentally or calculated from the Lineweaver-Burk equation [26]:(1) 1/V=Km/Vmax × 1/S+1/Vmax where Km is the Michaelis constant; Vmax is the maximum velocity; V is the reaction velocity, and S is the substrate of the enzymatic reaction.
The study of the inhibition type of the tested extract (competitive, noncompetitive, or mixed type) was performed by the comparison of Km and Vmax and their ratio (Km/Vmax) in the presence and absence of the inhibitor (I). The type of inhibition was also assessed based on the graphical view of the Lineweaver–Burk plot (1/V versus 1/S).

In assay [2] the target is α-glucosidase from Saccharomyces cerevisiae. The experiment in a line: α-Glucosidase inhibitory assay (PNPG substrate). Conditions: yeast α-glucosidase, PNPG as substrate, mean ± SD (n = 3).

For the compound `C[C@H]1O[C@H](O[C@H]2[C@H](O)[C@@H](O)[C@@H](O[C@H]3[C@H](O)[C@@H](O)C(O)O[C@@H]3CO)O[C@@H]2CO)[C@H](O)[C@@H](O)[C@@H]1N[C@H]1C=C(CO)[C@@H](O)[C@H](O)[C@H]1O` (some centres unmarked) [AR, acarbose], the “Type Inhibition, α-glucosidase” value in assay [1] (Lineweaver–Burk plot) was “Competitive”. Moreover, the Vmax in assay [1] (inhibitor 110.0 µg/mL) is on record as 0.028 ± 0.001^A mM/min; in assay [1] (inhibitor 160.0 µg/mL), 0.027 ± 0.001^A mM/min; in assay [1] (inhibitor 215.0 µg/mL), 0.029 ± 0.001^A mM/min.

On to `O=C(O)CC(OC(=O)/C=C/c1ccc(O)c(O)c1)C(=O)O` (centres unmarked) [CAD, caffeoylmalic acid], for which the “IC50 α-Glucosidase” value in assay [2] was 43.70 ± 2.18 ^B µg/mL.

Turning to `O=c1c(O[C@@H]2O[C@H](CO)[C@H](O)[C@H](O)[C@H]2O[C@@H]2OC[C@@H](O)[C@H](O)[C@H]2O)c(-c2ccc(O)c(O)c2)oc2cc(O)cc(O)c12` [QPH, quercetin 3-O-β-D-(2″-O-β-D-xylopyranosyl)galactopyranoside], in assay [2], the “IC50 α-Glucosidase” value is 311.80 ± 1.97 ^G µg/mL.

With `Oc1cc(O)c2c(c1)O[C@H](c1ccc(O)c(O)c1)[C@H](O)[C@H]2c1c(O)cc(O)c2c1O[C@H](c1ccc(O)c(O)c1)[C@H](O)C2` [PB2, procyanidin B2], in assay [2], the “IC50 α-Glucosidase” value is 416.37 ± 11.23 ^H µg/mL.

`O=c1c(O[C@@H]2O[C@H](CO)[C@H](O)[C@H](O)[C@H]2O)c(-c2ccc(O)c(O)c2)oc2cc(O)cc(O)c12` [HP, hyperoside]: the “IC50 α-Glucosidase” value in assay [2] is given as 283.48 ± 3.47 ^F µg/mL.
